# Not every detail of the peptide structures is certain; ends, links or a residue may be inferred. *1 amine or outer side, *2 acyl side, *3 side chain or, on linkers, in order; H or OH if unused. Where a SMILES comes first, the peptide text is derived from it. Bridges are numbered along the chain shown (N, C = ends). [ ]: non-standard residue; d: D form. TATA = O=C(CC[*:1])N1CN(C(=O)CC[*:2])CN(C(=O)CC[*:3])C1; hArg = N=C(N)NCCCC[C@H](N)C(=O)O; Aze = O=C(O)[C@@H]1CCN1; βAla = NCCC(=O)O; Sar = CNCC(=O)O
# Molecular target: T1, human Nectin-4 (Homo sapiens, UniProt Q96NY8)
# T1 sequence (Q96NY8 32-510): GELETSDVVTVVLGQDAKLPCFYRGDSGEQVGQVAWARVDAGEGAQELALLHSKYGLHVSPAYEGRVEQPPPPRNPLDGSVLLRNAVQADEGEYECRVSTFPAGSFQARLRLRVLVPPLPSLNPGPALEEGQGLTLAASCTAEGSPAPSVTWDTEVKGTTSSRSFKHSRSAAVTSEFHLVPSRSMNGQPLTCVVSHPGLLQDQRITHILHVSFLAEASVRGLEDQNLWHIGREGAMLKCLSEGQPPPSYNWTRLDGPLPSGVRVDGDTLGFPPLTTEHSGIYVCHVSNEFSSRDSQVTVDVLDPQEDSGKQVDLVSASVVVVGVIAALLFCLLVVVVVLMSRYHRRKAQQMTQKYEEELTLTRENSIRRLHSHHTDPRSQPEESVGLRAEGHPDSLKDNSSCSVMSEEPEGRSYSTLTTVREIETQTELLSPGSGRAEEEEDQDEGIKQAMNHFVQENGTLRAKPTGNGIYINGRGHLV
# Test: Nectin-4 competition binding assay (fluorescence polarisation)
# Settings: competition with fluorescent peptide SEQ ID NO: 217
# Procedure: Peptides were diluted to an appropriate concentration in assay buffer as described in the direct binding assay with a maximum of 5% DMSO, then serially diluted 1 in 2. Five μL of diluted peptide was added to the plate followed by 10 μL of human Nectin-4, then 10 μL fluorescent peptide added. Measurements were conducted as for the direct binding assay, however the gain was determined prior to the first measurement. Data analysis was in Systat Sigmaplot version 12.0 where the mP values were fit to a user defined cubic equation to generate a Ki value: • f=ymin+(ymax−ymin)/Lig*((Lig*((2*((Klig+Kcomp+Lig+Comp-Prot*c)^2-3*(Kcomp*(Lig-Prot*c)+Klig*(Comp-Prot*c)+Klig*Kcomp))^0.5*COS(ARCCOS((−2*(Klig+Kcomp+Lig+Comp-Prot*c)^3+9*(Klig+Kcomp+Lig+Comp-Prot*c)*(Kcomp*(Lig-Prot*c)+Klig*(Comp-Prot*c)+Klig*Kcomp)−27*(−1*Klig*Kcomp*Prot*c)/(2*((((Klig+Kcomp+Lig+Comp-Prot*c)^2−3*(Kcomp*(Lig-Prot*c)+Klig*(Comp-Prot*c)+Klig*Kcomp))^3)^0.5)))/3))−(Klig+Kcomp+Lig+Comp-Prot*c)))/((3*Klig)+((2*((Klig+Kcomp+Lig+Comp-Prot*c)^2−3*(Kcomp*(Lig-Prot*c)+Klig*(Comp-Prot*c)+Klig*Kcomp))^0.5*COS (ARCCOS ((−2*(Klig+Kcomp+Lig+Comp-Prot*c)^3+9*(Klig+Kcomp+Lig+Comp-Prot*c)*(Kcomp*(Lig-Prot*c)+Klig*(Comp-Prot*c)+Klig*Kcomp)-27*(−1*Klig*Kcomp*Prot*c))/(2*((((Klig+Kcomp+Lig+Comp-Prot*c)^2-3*(Kcomp*(Lig-Prot*c)+Klig*(Comp-Prot+c)+Klig*Kcomp))^3)^0.5))/3)−(Klig+Kcomp+Lig+Comp-Prot*c)))).
# “Lig”, “KLig” and “Prot” were all defined values relating to: fluorescent peptide concentration, the Kd of the fluorescent peptide and Nectin concentration respectively.
row,SMILES,Ki
1,"CCCC[C@@H]1NC(=O)[C@@H]2CSCCC(=O)N3CN(CN(C3)C(=O)CCSC[C@H](NC(=O)[C@H](C)N)C(=O)N3CCC[C@H]3C(=O)N[C@@H](Cc3ccccc3)C(=O)NCC(=O)N2)C(=O)CCSC[C@@H](C(=O)N[C@H](C(=O)N[C@@H](CC(N)=O)C(=O)N[C@@H](CCCCN)C(N)=O)[C@@H](C)O)NC(=O)[C@H](Cc2c[nH]c3ccccc23)NC(=O)[C@H]([C@@H](C)CC)NC(=O)[C@@H]2CCCN2C(=O)[C@H](Cc2c[nH]c3ccccc23)NC(=O)[C@H](CO)NC(=O)[C@H](Cc2c[nH]c3ccccc23)NC(=O)[C@H](CC(N)=O)NC(=O)[C@H](CCCCN)NC1=O [BCY7372, A-(SEQ ID NO: 29)-TNK]",72.6 nM
2,"CC[C@H](C)[C@@H]1NC(=O)[C@@H]2CCCN2C(=O)[C@H](Cc2c[nH]c3ccccc23)NC(=O)[C@H](CO)NC(=O)[C@H](Cc2c[nH]c3ccccc23)NC(=O)[C@H](CC(N)=O)NC(=O)[C@H](CCCCN)NC(=O)[C@H](CCSC)NC(=O)[C@@H]2CSCCC(=O)N3CN(CN(C3)C(=O)CCSC[C@H](NC(=O)[C@H](C)NC(=O)[C@@H](N)Cc3cccc4ccccc34)C(=O)N3CCC[C@H]3C(=O)N[C@@H](Cc3ccccc3)C(=O)NCC(=O)N2)C(=O)CCSC[C@@H](C(=O)N[C@@H](C)C(N)=O)NC(=O)[C@H](Cc2c[nH]c3ccccc23)NC1=O [BCY7420, (1-Nal) A-(SEQ ID NO: 1)-A]",63.6 nM
3,"CC[C@H](C)[C@@H]1NC(=O)[C@@H]2CCCN2C(=O)[C@H](Cc2c[nH]c3ccccc23)NC(=O)[C@H](CO)NC(=O)[C@H](Cc2c[nH]c3ccccc23)NC(=O)[C@H](CC(N)=O)NC(=O)[C@H](CCCCN)NC(=O)[C@H](CCSC)NC(=O)[C@@H]2CSCCC(=O)N3CN(CN(C3)C(=O)CCSC[C@H](NC(=O)[C@H](C)NC(=O)[C@@H](N)Cc3ccc4ccccc4c3)C(=O)N3CCC[C@H]3C(=O)N[C@@H](Cc3ccccc3)C(=O)NCC(=O)N2)C(=O)CCSC[C@@H](C(=O)N[C@@H](C)C(N)=O)NC(=O)[C@H](Cc2c[nH]c3ccccc23)NC1=O [BCY7421, (2-Nal) A-(SEQ ID NO: 1)-A]",28.5 nM
4,"CC[C@H](C)[C@@H]1NC(=O)[C@@H]2CCCN2C(=O)[C@H](Cc2c[nH]c3ccccc23)NC(=O)[C@H](CO)NC(=O)[C@H](Cc2c[nH]c3ccccc23)NC(=O)[C@H](CC(N)=O)NC(=O)[C@H](CCCCN)NC(=O)[C@H](CCSC)NC(=O)[C@@H]2CSCCC(=O)N3CN(CN(C3)C(=O)CCSC[C@H](NC(C)=O)C(=O)N3CCC[C@H]3C(=O)N[C@@H](Cc3ccccc3)C(=O)N[C@H](C)C(=O)N2)C(=O)CCSC[C@@H](C(N)=O)NC(=O)[C@H](Cc2c[nH]c3ccccc23)NC1=O [BCY7538, Ac-(SEQ ID NO: 67)]",8.5 nM
5,"CC[C@H](C)[C@@H]1NC(=O)[C@@H]2CCCN2C(=O)[C@H](Cc2c[nH]c3ccccc23)NC(=O)[C@H](CO)NC(=O)[C@H](Cc2c[nH]c3ccccc23)NC(=O)[C@H](CC(N)=O)NC(=O)[C@H](CCCCNC(=N)N)NC(=O)[C@H](CCSC)NC(=O)[C@@H]2CSCCC(=O)N3CN(CN(C3)C(=O)CCSC[C@H](NC(=O)CN(C)C(=O)CN(C)C(=O)CN(C)C(=O)CN(C)C(=O)CN(C)C(=O)CCN)C(=O)N3CCC[C@H]3C(=O)N[C@@H](Cc3ccccc3)C(=O)N[C@H](CC(=O)O)C(=O)N2)C(=O)CCSC[C@@H](C(N)=O)NC(=O)[C@H](Cc2c[nH]c3ccccc23)NC1=O [BCY7556, [B-Ala][Sar5]-(SEQ ID NO: 76)] (H-[βAla][Sar][Sar][Sar][Sar][Sar]CPF[dD]CM[hArg]NWSWPIWC-NH2; linker 7-11-21 via TATA)",26.1 nM
6,"CC[C@H](C)[C@@H]1NC(=O)[C@@H]2CCCN2C(=O)[C@H](Cc2c[nH]c3ccccc23)NC(=O)[C@H](CO)NC(=O)[C@H](Cc2c[nH]c3ccccc23)NC(=O)[C@H](CC(N)=O)NC(=O)[C@H](CCCCNC(=N)N)NC(=O)[C@H](CCSC)NC(=O)[C@@H]2CSCCC(=O)N3CN(CN(C3)C(=O)CCSC[C@H](NC(=O)CN(C)C(=O)CN(C)C(=O)CN(C)C(=O)CN(C)C(=O)CN(C)C(=O)CCN)C(=O)N3CCC[C@H]3C(=O)N[C@@H](Cc3ccccc3)C(=O)N[C@H](C)C(=O)N2)C(=O)CCSC[C@@H](C(N)=O)NC(=O)[C@H](Cc2c[nH]c3ccccc23)NC1=O [BCY7557, [B-Ala][Sar5]-(SEQ ID NO: 77)] (H-[βAla][Sar][Sar][Sar][Sar][Sar]CPF[dA]CM[hArg]NWSWPIWC-NH2; linker 7-11-21 via TATA; N-terminus and C-terminus assumed)",22.5 nM
7,"CC[C@H](C)[C@@H]1NC(=O)[C@@H]2CCCN2C(=O)[C@H](Cc2cccc3ccccc23)NC(=O)[C@H](CO)NC(=O)[C@H](Cc2c[nH]c3ccccc23)NC(=O)[C@H](CC(N)=O)NC(=O)[C@H](CCCCN)NC(=O)[C@H](CCSC)NC(=O)[C@@H]2CSCCC(=O)N3CN(CN(C3)C(=O)CCSC[C@H](NC(C)=O)C(=O)N3CCC[C@H]3C(=O)N[C@@H](Cc3ccccc3)C(=O)NCC(=O)N2)C(=O)CCSC[C@@H](C(N)=O)NC(=O)[C@H](Cc2c[nH]c3ccccc23)NC1=O [BCY7591, Ac-(SEQ ID NO: 86)]",180 nM
8,"CC[C@H](C)[C@@H]1NC(=O)[C@@H]2CCN2C(=O)[C@H](Cc2c[nH]c3ccccc23)NC(=O)[C@H](CO)NC(=O)[C@H](Cc2c[nH]c3ccccc23)NC(=O)[C@H](CC(N)=O)NC(=O)[C@H](CCCCN)NC(=O)[C@H](CCSC)NC(=O)[C@@H]2CSCCC(=O)N3CN(CN(C3)C(=O)CCSC[C@H](NC(C)=O)C(=O)N3CCC[C@H]3C(=O)N[C@@H](Cc3ccccc3)C(=O)NCC(=O)N2)C(=O)CCSC[C@@H](C(N)=O)NC(=O)[C@H](Cc2c[nH]c3ccccc23)NC1=O [BCY7594, Ac-(SEQ ID NO: 89)] (Ac-CPFGCMKNWSW[Aze]IWC-NH2; linker 1-5-15 via TATA)",73 nM
9,"CC[C@H](C)[C@@H]1NC(=O)[C@@H]2CCCN2C(=O)[C@H](Cc2c[nH]c3ccccc23)NC(=O)[C@H](CO)NC(=O)[C@H](Cc2c[nH]c3ccccc23)NC(=O)[C@H](CC(N)=O)NC(=O)[C@H](CCCCN)NC(=O)[C@H](CCSC)NC(=O)[C@@H]2CSCCC(=O)N3CN(CN(C3)C(=O)CCSC[C@H](NC(C)=O)C(=O)N3CC[C@H]3C(=O)N[C@@H](Cc3ccccc3)C(=O)NCC(=O)N2)C(=O)CCSC[C@@H](C(N)=O)NC(=O)[C@H](Cc2c[nH]c3ccccc23)NC1=O [BCY7608, Ac-(SEQ ID NO: 95)]",42 nM
10,"CC[C@H](C)[C@@H]1NC(=O)[C@@H]2CCCN2C(=O)[C@H](Cc2c[nH]c3ccccc23)NC(=O)[C@H](CO)NC(=O)[C@H](Cc2c[nH]c3ccccc23)NC(=O)[C@H](CC(N)=O)NC(=O)[C@H](CCCCN)NC(=O)[C@H](CCSC)NC(=O)[C@@H]2CSCCC(=O)N3CN(CN(C3)C(=O)CCSC[C@H](NC(C)=O)C(=O)N3CCC[C@H]3C(=O)N[C@@H](Cc3ccccc3)C(=O)N[C@@H](CCCCNC(C)=O)C(=O)N2)C(=O)CCSC[C@@H](C(N)=O)NC(=O)[C@H](Cc2c[nH]c3ccccc23)NC1=O [BCY7611, Ac-(SEQ ID NO: 96)]",205 nM
11,"CC[C@H](C)[C@@H]1NC(=O)[C@@H]2CCCN2C(=O)[C@H](Cc2c[nH]c3ccccc23)NC(=O)[C@H](CO)NC(=O)[C@H](Cc2c[nH]c3ccccc23)NC(=O)[C@H](CC(N)=O)NC(=O)[C@H](CCCCN)NC(=O)[C@H](CCSC)NC(=O)[C@@H]2CSCCC(=O)N3CN(CN(C3)C(=O)CCSC[C@H](NC(C)=O)C(=O)N3CCC[C@H]3C(=O)N[C@@H](Cc3ccccn3)C(=O)NCC(=O)N2)C(=O)CCSC[C@@H](C(N)=O)NC(=O)[C@H](Cc2c[nH]c3ccccc23)NC1=O [BCY7620, Ac-(SEQ ID NO: 102)]",246 nM
12,"CC[C@H](C)[C@@H]1NC(=O)[C@H](CCCNC(=N)N)NC(=O)[C@H](CC(N)=O)NC(=O)[C@@H]2CSCCC(=O)N3CN(CN(C3)C(=O)CCSC[C@H](NC(=O)[C@H](Cc3c[nH]c4ccccc34)NC(=O)[C@H](CCCCN)NC(=O)[C@@H](C)NC(C)=O)C(=O)N[C@@H](C)C(=O)N3CCC[C@H]3C(=O)N[C@@H](CC(C)C)C(=O)N[C@@H](CO)C(=O)N[C@@H](CC(=O)O)C(=O)N[C@@H](Cc3ccc(O)cc3)C(=O)N[C@@H](Cc3c[nH]c4ccccc34)C(=O)N2)C(=O)CCSC[C@@H](C(N)=O)NC1=O [BCY7634, Ac-[dA]KW-(SEQ ID NO: 34)] (Ac-[dA]KWCAPLSDYWCNRIC-NH2; linker 4-12-16 via TATA; C-terminus assumed)",24 nM

# From patent publication US12459974B2, “Bicyclic peptide ligands specific for Nectin-4” (priority 2018, dated 2025)
